According to PubChem BioAssay AID485344 (National Center for Advancing Translational Sciences (NCATS), 2010):
In all, about 340,000 compounds went through this assay and about 6,900 (2%) were called active. Rule as the data show it: active = inhibition above about 30%; inactive = below that, where a call was filed. The list shows a part of the results, in another mix than the full data. Entries without a call were filed so in the source.
Also: 0% is about no effect.

These molecules were tested against D(2) dopamine receptor (Homo sapiens) (UniProt P14416) (assay: HTS Assay for Allosteric Antagonists of the Human D2 Dopamine Receptor: Primary Screen for Antagonists). Settings: HEK293 TREx D2 cells, calcium flux, dopamine EC80; at 10 µM; stronger effect = higher value.
UniProt P14416, sequence (P14416 whole entry, looked up): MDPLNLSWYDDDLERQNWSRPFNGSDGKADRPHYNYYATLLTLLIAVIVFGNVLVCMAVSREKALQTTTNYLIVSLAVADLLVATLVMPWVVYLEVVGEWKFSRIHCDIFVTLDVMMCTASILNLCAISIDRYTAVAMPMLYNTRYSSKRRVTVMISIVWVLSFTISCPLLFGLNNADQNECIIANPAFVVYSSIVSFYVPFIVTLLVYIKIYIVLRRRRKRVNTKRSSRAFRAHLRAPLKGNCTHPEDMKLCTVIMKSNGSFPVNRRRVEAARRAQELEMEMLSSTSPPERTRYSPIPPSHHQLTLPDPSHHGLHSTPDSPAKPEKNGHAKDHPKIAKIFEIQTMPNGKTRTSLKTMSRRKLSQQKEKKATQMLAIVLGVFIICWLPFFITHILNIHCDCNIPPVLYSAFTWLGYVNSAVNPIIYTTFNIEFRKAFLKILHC
How it was run: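 Calcium flux kinetic readout in an inducible HEK293 TREx D2 line plated overnight at 30 C. After 180 s compound exposure, an EC80 dopamine challenge follows with another 180 s kinetic read to detect antagonism.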
`CC(C)CC(=O)N(Cc1ccccc1)S(=O)(=O)c1ccc2c(c1)oc(=O)n2C` showed an inhibition of -8.9%.
In the case of `CCOc1ccc(C(=O)OCc2cc(=O)n3nc(C(C)C)sc3n2)cc1`, the inhibition is reported as 6.66%.
For `Cc1ccc(Cl)cc1N1CCN(C(=O)c2cn(C)c3ccc(S(=O)(=O)N4CCCC4)cc3c2=O)CC1`, the inhibition was -0.366%.
`CC1=C(C(=O)OC2CCCC2)C(c2cccc(Cl)c2Cl)CC(=O)N1` (configuration not stated) gave an inhibition of 9.49%.
With `Cc1ccccc1OCC(=O)Nc1nnc(S(=O)(=O)N(C)c2ccccc2)s1` the inhibition was 15.4%.
`COc1ccccc1N1CCN(C(=O)c2cc3c(=O)n(Cc4cccnc4)ccc3nc2C)CC1` showed an inhibition of -8.35%.
`O=C(Cn1c(=O)n(-c2ccccc2)c(=O)c2c3c(sc21)CCCC3)Nc1ccc(F)cc1` gave an inhibition of -0.603%.
In the case of `CCC1Oc2ccccc2N(CC(=O)NCc2ccc(C)cc2)C1=O` (configuration not stated), the inhibition is reported as 24%.
`CCOc1ccc(CNC(=O)c2cnc(SC)nc2C)cc1` showed an inhibition of 1.08%.
Molecule `COC(=O)c1c(-c2cccs2)csc1NC(=O)COc1ccc(C(C)C)cc1` has an inhibition of -5.94%.
Molecule `CCOC(=O)C1CCN(C(=O)c2nn(-c3ccc(C)cc3)c(=O)n(C)c2=O)CC1` has an inhibition of 22.2%.
Work on `O=C(Nc1ccc(Cl)cc1C(F)(F)F)c1cc(S(=O)(=O)NCc2ccccc2)ccc1F` yielded an inhibition of -8.17%.
`CCc1ccc(CNC(=O)c2ccc(CS(=O)(=O)Cc3ccccc3C)o2)cc1` showed an inhibition of 18.4%.
For `O=C(CSc1nccn1C1CCCC1)Nc1ccccc1`, the inhibition was -1.36%.
In the case of `CCOC(=O)CSc1nc2ccccc2n2c(C)nnc12`, the inhibition is reported as 9.01%.
`CCN(CC)C(=O)C1CCN(C(=O)c2cnn(-c3ccccc3)c2-n2cccc2)CC1` was tested, and the inhibition was 7.22%.
With `COc1ccc(CNC(=O)CCS(=O)(=O)c2ccc3c(c2)CC(C)N3C(=O)C2CC2)cc1` (configuration not stated) the inhibition was 0.72%.
Molecule `COc1cccc(NC(=O)CN2C(=O)C3(SCC(=O)N3c3cc(C)cc(C)c3)c3ccccc32)c1` (configuration not stated) has an inhibition of 6.27%.
With `Cc1ccc(CN2C(=O)N(c3ccc(C)c(Cl)c3)S(=O)(=O)c3ccccc32)cc1` the inhibition was 5.27%.
`Cc1ccc(NC(=O)C2CCN(S(=O)(=O)c3c(C)noc3C)CC2)cc1C` showed an inhibition of -7.19%.
`N#Cc1ccc(NC(=O)COCc2cc(-c3ccc(F)cc3)on2)cc1` gave an inhibition of 2.52%.
Molecule `COC(=O)c1cc2oc(C)cc2n1Cc1ccc(Cl)cc1` has an inhibition of 12.5%.
For `N#Cc1ccc(NC(=O)CN2CCN(c3ccccn3)CC2)cc1`, the inhibition was active: 68.4%.
For `CC(C)n1c(=N)c(C(=O)NCc2cccnc2)cc2c(=O)n3ccccc3nc21`, the inhibition was -1.5%.
In the case of `Cc1ccccc1NC(=O)CC1SCCNC1=O` (configuration not stated), the inhibition is reported as active: 45%.
Work on `COc1ccc(Cl)cc1NS(=O)(=O)c1cc(Br)cc2c1N(C(=O)C1CC1)CC2` yielded an inhibition of -5.26%.
`Cc1ccc(CNC(=O)CCc2c(C)nc3c(c(C)nn3-c3ccccc3)c2C)cc1` gave an inhibition of -10.2%.
With `COc1ccc(C(=O)c2oc3ccccc3c2NC(=O)COc2ccccc2)cc1` the inhibition was -0.206%.
`COc1ccc(CCNC(=O)c2sc3nc4n(c(=O)c3c2C)CCCC4)cc1OC` was tested, and the inhibition was -23.5%.
`CCc1cccc(C)c1NC(=O)CC1Oc2ccc(C)cc2NC1=O` (configuration not stated) was tested, and the inhibition was 7.82%.
`CCC(C)n1c(=N)c(C(=O)NCc2ccccc2)cc2c(=O)n3cc(C)ccc3nc21` (configuration not stated) showed an inhibition of -12.2%.
`COc1ccc(C(=O)Nc2nnc(S(=O)(=O)N3CCCCCC3)s2)cc1OC` was tested, and the inhibition was 6.11%.
Work on `CCOC(=O)c1cc(-c2ccccc2)n(-c2cccc(C(=O)Nc3cccc(F)c3)c2)c1C` yielded an inhibition of 23.3%.
For `Cc1ccc(NC(=O)C2CCN(c3nc4ccccc4nc3C(F)(F)F)CC2)cc1F`, the inhibition was 0.537%.
`O=C1N[C@@H](Cc2ccccc2)[C@@H](c2ccco2)O1` was tested, and the inhibition was active: 31.8%.
`COc1ccc(N2CCN(C(=O)C3CCCN(S(=O)(=O)c4ccc5c(c4)CCCN5C(C)=O)C3)CC2)cc1` (configuration not stated) showed an inhibition of 6.53%.
For `CCOC(=O)c1cnc2c(ccc3ccccc32)c1Nc1ccccc1OCC`, the inhibition was 3.95%.
`COc1ccc(OC)c(-c2cc(C(=O)NCCc3ccccc3)c3c(-c4ccc(C)cc4)[nH]nc3n2)c1` was tested, and the inhibition was -2.73%.
`COCCCNC(=O)CS(=O)Cc1nc(-c2cccc(C)c2)oc1C` (configuration not stated) gave an inhibition of 7.67%.
Work on `CCOc1ccccc1NC(=O)c1c(NC(=O)COc2ccccc2)sc2c1CCCCC2` yielded an inhibition of -8.01%.
In the case of `CC(NC(=O)CCCC1=NS(=O)(=O)c2ccccc2N1)c1ccccc1` (configuration not stated), the inhibition is reported as 5.88%.
With `Cc1ccc(N2C(=O)CSC23C(=O)N(CC(=O)NCCc2ccccc2)c2ccccc23)cc1C` (configuration not stated) the inhibition was 2.46%.
For `CCCn1cc(S(=O)(=O)c2ccccc2)c(=O)c2cc(F)c(N3CCCCC3)cc21`, the inhibition was 8.99%.
For `O=C(Nc1cccc(Cl)c1)N1CCSc2ccccc21`, the inhibition was -18.9%.
In the case of `CSc1ccc(CCNC(=O)c2cnn(-c3ccccc3)c2-n2cccc2)cc1`, the inhibition is reported as 2.07%.
`CCN(CC)c1cc(C)c2cc(NC(=O)c3cccc(F)c3)ccc2n1` gave an inhibition of -4.46%.
`Cc1cccc(NC(=O)c2cc(S(=O)(=O)N3CCc4ccccc43)ccc2F)c1C` gave an inhibition of 13.8%.
For `CC(=O)Nc1ccc(S(=O)(=O)Oc2ccc(/C=N/N=C3/NC(=O)C(CC(=O)O)S3)cc2)cc1` (configuration not stated), the inhibition was active: 35.4%.
In the case of `CCOc1ccccc1CNC(=O)Cn1c(-c2ccccc2)cc(C(C)=O)c1C`, the inhibition is reported as -4.32%.
In the case of `Cc1ccn2c(=O)c(C(=O)NCCc3ccccc3)c(O)nc2c1`, the inhibition is reported as 1.13%.
For `O=C(CCc1nc(-c2cccs2)no1)Nc1ccccc1[N+](=O)[O-]`, the inhibition was -5.27%.
Work on `O=C(Cn1c(=O)n(Cc2ccccc2)c(=O)c2sc3ccccc3c21)NCc1ccccc1Cl` yielded an inhibition of 8.84%.
Work on `O=C(NC1CC(=O)N(c2cccc(F)c2)C1)c1ccc(S(=O)(=O)N2CCCC2)cc1` (configuration not stated) yielded an inhibition of -8.19%.
`COc1cc(/C=N/NC(=O)c2c(-c3ccccc3)noc2C)cc(OC)c1OC` was tested, and the inhibition was active: 56.3%.
Molecule `COc1ccc(CCNC(=O)c2cnc3ccc(C)cn3c2=O)cc1` has an inhibition of 11.2%.
`CCCS(=O)(=O)c1c(S(=O)(=O)CCC)c2cc(CC)ccn2c1C(=O)c1ccc(OC)cc1` showed an inhibition of -6.73%.
`O=C(NCCCN1CCN(c2cccc(Cl)c2)CC1)C1CCC(=O)N1Cc1ccccc1Cl` (configuration not stated) was tested, and the inhibition was active: 39.8%.
Work on `CC(C)CS(=O)(=O)c1oc(-c2ccc(F)cc2)nc1S(=O)(=O)c1ccccc1` yielded an inhibition of -18.2%.
Work on `COc1cccc(Cn2nnc(C(=O)Nc3cc(C)ccc3C)c2N)c1` yielded an inhibition of -17.6%.
Molecule `CCOc1ccc(NC(=O)N2CCC(C(N)=O)(N3CCCCC3)CC2)cc1` has an inhibition of 3.1%.
`O=C(Nc1ccc(C(=O)OCc2cc(=O)n3c4c(sc3n2)CCCC4)cc1)c1ccccc1` showed an inhibition of 13.1%.
For `Cc1cc(OCCN2CCCC2)cc(C(C)C)c1`, the inhibition was active: 46.1%.
For `CC(=O)c1ccc(NC(=O)c2noc3c2CCc2ccccc2-3)cc1`, the inhibition was 17.9%.
In the case of `COc1ccc(C2C(C(N)=O)=C(C)Nc3nc(CCCO)nn32)c(OC)c1` (configuration not stated), the inhibition is reported as -2.06%.
`c1ccc(-c2ccccc2OCCCN2CCCCCC2)cc1` was tested, and the inhibition was active: 56.2%.
In the case of `Cc1ccc(Cl)cc1NC(=O)C(C)n1nnc2sc3c(c2c1=O)CCCC3` (configuration not stated), the inhibition is reported as -21.5%.
With `Cc1cccc(N2CCN(S(=O)(=O)c3ccc4c(c3)CCCN4C(=O)C3CCC3)CC2C)c1` (configuration not stated) the inhibition was -7.88%.
Molecule `COc1ccc(Cn2c(=O)[nH]c3cc(C(=O)N4CCN(c5cccc(Cl)c5)CC4)ccc3c2=O)cc1` has an inhibition of 2.89%.
Molecule `Cn1c(=O)n(-c2ccc(Br)cc2F)c(=O)c2sc3ccccc3c21` has an inhibition of 18%.
`CCOC(=O)c1ccc(CN(Cc2ccc(F)cc2)S(=O)(=O)c2cc(C(=O)Nc3cccc(C(F)(F)F)c3)ccc2F)cc1` showed an inhibition of -13%.
For `CCOc1ccc(NC(=O)CN2C(=O)C(c3ccccc3)=NC23CCC(C)CC3)cc1` (configuration not stated), the inhibition was 7.38%.
Work on `O=C(NC1CCCCCC1)c1ccc2c(c1)sc1nc(-c3ccc(F)cc3)cn12` yielded an inhibition of 25.8%.
In the case of `CCCN1C(C(=O)c2ccccc2)=C(OC(=O)COc2ccccc2)c2ccccc2S1(=O)=O`, the inhibition is reported as 2.01%.
Work on `Cc1cc(C)c(NC(=O)CSc2nc3ccccc3nc2N2CCCCC2)c(C)c1` yielded an inhibition of -1.87%.
`CCCc1nc2sc3c(N4CCC(C)CC4)ncnc3c2c2c1CCCC2` showed an inhibition of 14.5%.
`CC(C)COc1cccc(C(=O)Nc2ccc(-c3nc4ncccc4o3)cc2)c1` showed an inhibition of -2.1%.
Work on `CCC(C(=O)Nc1cccc(Cl)c1C)n1nc(-c2ccc(C)cc2)ccc1=O` (configuration not stated) yielded an inhibition of -10%.
With `CC(C)COc1ccc(C(=O)Nc2ccc(S(=O)(=O)Nc3ncccn3)cc2)cc1` the inhibition was -3.59%.
With `CCC(=O)Nc1cc(C)c(O)c(-c2nc3ncccc3o2)c1` the inhibition was 10.6%.
`CC1CCN(C(=O)Cn2cc(SCC(=O)NCc3ccccc3Cl)c3ccccc32)CC1` gave an inhibition of 5.35%.
Work on `O=C(Cn1cnc2c(oc3ccccc32)c1=O)Nc1ccccc1C(F)(F)F` yielded an inhibition of -19.6%.
`COc1ccc(OC)c(NC(=O)CN(C)S(=O)(=O)c2ccc(C(=O)N3CCOCC3)s2)c1` was tested, and the inhibition was -11.3%.
For `Cc1cc(C)c(C)c(OCCCCN2CCCCC2)c1`, the inhibition was active: 55.3%.
`COc1ccccc1NC(=O)Cn1c(=O)n(Cc2ccccc2)c(=O)c2sc3ccccc3c21` was tested, and the inhibition was 14.3%.
Work on `Cc1ccc(-c2nnc(Nc3cccc(Cl)c3)c3ccccc23)cc1S(=O)(=O)N1CCOCC1` yielded an inhibition of 11.1%.
In the case of `COc1ccc(C)cc1NC(=O)N(Cc1ccc(C)o1)C1CCN(C(C)=O)CC1`, the inhibition is reported as -1.34%.
`COc1ccc(CN2C(=O)c3oc4ccccc4c(=O)c3C2c2ccc(O)cc2)cc1` (configuration not stated) showed an inhibition of -3.19%.
For `O=C(Nc1cccc(-c2nc3cc(Cl)ccc3o2)c1)c1cc([N+](=O)[O-])ccc1N1CCOCC1`, the inhibition was 9.53%.
Work on `CCn1c(=O)c2cc(C(=O)Nc3cc(F)ccc3F)sc2c2ccccc21` yielded an inhibition of -0.791%.
`Cc1ccc(CN2CCC(CNc3ncnc4onc(-c5ccc(F)cc5)c34)CC2)cc1` gave an inhibition of 23.2%.
For `COc1nc(OC)nc(N2CCCCCC2)n1`, the inhibition was active: 33%.
For `COc1ccc(S(=O)(=O)c2nnn(-c3cc(Cl)c(OC)cc3OC)c2C)cc1`, the inhibition was 11.6%.
`O=C(CSc1nc2c([nH]c3ccccc32)c(=O)n1-c1ccc(F)cc1)NCc1ccccc1` gave an inhibition of -0.047%.
`CCOCCCn1c(SCC(=O)Nc2ccc(C(C)C)cc2)nc2c(sc3ccccc32)c1=O` showed an inhibition of -27.3%.
`Cn1c(=O)c2c(-c3ccccc3)n3c4ccccc4nc(-c4ccccc4)c3c2n(C)c1=O` showed an inhibition of 6.71%.
`COc1ccc(C(=O)NCC(c2cccnc2)N2CCc3ccccc3C2)cc1OC` (configuration not stated) was tested, and the inhibition was -6.64%.
`COC(=O)c1cc2occc2n1Cc1nc(-c2ccccc2F)oc1C` was tested, and the inhibition was 6.63%.
